The text below walks through data of the antibiotic and cytotoxicity screens of Wong et al. (2023).

Some of the results follow.

The test deals with HepG2. Kind of test: cytotoxicity call (relative viability < 0.9). The following applies: 10 µM.
For `Cc1ccc(S(=O)(=O)N2C[C@H](O)COC[C@@H]3O[C@@H](CC(=O)NCCN4CCCCC4)CC[C@H]32)cc1`, the cytotoxicity call is “inactive”.

On to `Cc1ccc(-c2ccc3c(c2)O[C@H](CN(C)C(=O)CN(C)C)[C@@H](C)CN([C@H](C)CO)S3(=O)=O)cc1`, for which the cytotoxicity call was “inactive”.

With `CO[C@@H](CN(C)S(=O)(=O)c1ccc(Cl)cc1)[C@@H](C)CN([C@@H](C)CO)S(=O)(=O)c1cccc(Cl)c1`, the cytotoxicity call was “inactive”.

In the case of `C[C@@H]1CCCCO[C@@H](CN(C)C(=O)CCC(F)(F)F)[C@H](C)CN([C@H](C)CO)C(=O)c2cc(NS(=O)(=O)c3ccccc3)ccc2O1`, the cytotoxicity call was “inactive”.

As for `C[C@@H]1CN([C@H](C)CO)C(=O)c2cc(NC(=O)Nc3ccccc3)ccc2O[C@@H](C)CCCCO[C@H]1CN(C)Cc1ccc(Cl)c(Cl)c1`, the cytotoxicity call is “active”.

Take `Cc1ccc(-c2ccc3c(c2)O[C@@H](CN(C)C(=O)Nc2ccc(C(F)(F)F)cc2)[C@H](C)CN([C@@H](C)CO)S3(=O)=O)cc1`: the cytotoxicity call is “inactive”.

`O=C(CCCN1CCN(c2ccccn2)CC1)c1ccc(F)cc1`: the cytotoxicity call is “inactive”.

Turning to `COc1ccc(NC(=O)N(C)C[C@@H]2Oc3ccc(NC(=O)CCN4CCOCC4)cc3CC(=O)N([C@@H](C)CO)C[C@H]2C)cc1`, the cytotoxicity call was “inactive”.

As to `C[C@@H]1CCCCO[C@@H](CN(C)CC2CC2)[C@@H](C)CN([C@H](C)CO)C(=O)c2cc(NC(=O)NC3CCCCC3)ccc2O1`, the cytotoxicity call was “inactive”.

In the case of `Cc1ccn2c(=O)c(C(=O)O)cnc2c1`, the cytotoxicity call is “inactive”.

In the case of `C=C1C[C@@H]2CC[C@@]34C[C@H]5O[C@H]6[C@@H](O3)[C@H]3O[C@H](CC[C@@H]3O[C@H]6[C@H]5O4)CC(=O)C[C@@H]3[C@@H](OC)[C@@H](C[C@H](O)CN)O[C@H]3C[C@H]3O[C@@H](CC[C@@H]1O2)C[C@@H](C)C3=C`, the cytotoxicity call is “inactive”.

`C[C@@H]1CN([C@H](C)CO)C(=O)c2cc(NS(=O)(=O)c3ccc(F)cc3)ccc2O[C@H]1CN(C)S(C)(=O)=O`: the cytotoxicity call is “inactive”.

On to `Cc1ccc(S(=O)(=O)Nc2ccc3c(c2)C(=O)N([C@@H](C)CO)C[C@@H](C)[C@H](CN(C)Cc2ccccc2)OCCCC[C@@H](C)O3)cc1`, for which the cytotoxicity call is “inactive”.

Turning to `COc1ccc(S(=O)(=O)N(C)C[C@@H]2Oc3c(NS(C)(=O)=O)cccc3C(=O)N([C@@H](C)CO)C[C@H]2C)cc1`, the cytotoxicity call is “inactive”.

With `Cc1ccc(S(=O)(=O)Nc2ccc3c(c2)C(=O)N([C@H](C)CO)C[C@H](C)[C@H](CN(C)C(=O)Nc2cccc4ccccc24)OCCCC[C@H](C)O3)cc1`, the cytotoxicity call is “active”.

Turning to `COC(=O)C=CC(C)=CC=CC(C)=CC=CC=C(C)C=CC=C(C)C=CC(=O)O`, the cytotoxicity call is “inactive”.

Regarding `C[C@H]1CCCCO[C@@H](CN(C)C(=O)Nc2ccccc2)[C@@H](C)CN([C@@H](C)CO)C(=O)c2cc(NC(=O)Nc3ccc4c(c3)OCO4)ccc2O1`, the cytotoxicity call was “inactive”.

Consider `C[C@@H]1CN([C@@H](C)CO)S(=O)(=O)c2ccc(C#C[C@@H](C)O)cc2O[C@H]1CN(C)C(=O)c1ccncc1`, for which the cytotoxicity call is “inactive”.

Consider `C[C@@H]1CN([C@H](C)CO)C(=O)CCCn2nncc2CO[C@@H]1CN(C)C(=O)C1CC1`, for which the cytotoxicity call was “inactive”.

Regarding `COc1cc2c(cc1OC)CN(CCc1ccc(-n3nnc(-c4cc(OC)c(OC)cc4NC(=O)c4cc(=O)c5ccccc5o4)n3)cc1)CC2`, the cytotoxicity call is “inactive”.

With `C[C@@H]1CCCCO[C@@H](CN(C)C(=O)Nc2cccc3ccccc23)[C@H](C)CN([C@H](C)CO)C(=O)c2cc(NC(=O)Nc3ccc4c(c3)OCO4)ccc2O1`, the cytotoxicity call was “inactive”.

As for `C[C@@H]1CN([C@H](C)CO)C(=O)c2cc(NC(=O)Nc3ccc(C(F)(F)F)cc3)ccc2O[C@@H](C)CCCCO[C@H]1CN(C)C`, the cytotoxicity call was “inactive”.

Consider `C[C@@H]1CN([C@@H](C)CO)C(=O)c2cc(NC(=O)Nc3ccc(C(F)(F)F)cc3)ccc2O[C@H]1CN(C)C(=O)Nc1ccc2c(c1)OCO2`, for which the cytotoxicity call was “inactive”.

As to `C[C@H](C(=O)O)[C@H]1SC(=O)NC1=O`, the cytotoxicity call was “inactive”.

As for `C[C@H](CO)N1C[C@H](C)[C@H](CN(C)C(=O)Nc2ccc3c(c2)OCO3)Oc2ccc(NS(=O)(=O)c3cn(C)cn3)cc2C1=O`, the cytotoxicity call was “inactive”.

Turning to `CCCNC(=O)C[C@H]1CC[C@H]2[C@@H](COc3ccc(NS(=O)(=O)c4ccccc4C)cc3C(=O)N2C)O1`, the cytotoxicity call was “inactive”.

Regarding `O=C(O)CCCN=C1NC(=O)CC(=O)N1`, the cytotoxicity call was “inactive”.

`Cc1noc(C)c1NC(=O)N(C)C[C@@H]1Oc2c(NC(=O)c3cnccn3)cccc2C(=O)N([C@@H](C)CO)C[C@H]1C`: the cytotoxicity call is “inactive”.

Regarding `COC1=C2C[C@@H](C)C[C@H](OC)[C@H](O)[C@@H](C)/C=C(\C)[C@H](OC(N)=O)[C@@H](OC)/C=C/C=C(\C)C(=O)NC(=CC1=O)C2=O`, the cytotoxicity call was “active”.

`Cl.O=C(c1ccc(OCCN2CCCCC2)cc1)c1c(-c2ccc(O)cc2)sc2cc(O)ccc12`: the cytotoxicity call is “active”.

For the molecule `COCC(=O)Nc1ccc2c(c1)C(=O)N(C)C[C@@H](OC)[C@@H](C)CN(Cc1ccccc1F)[C@H](C)CO2`, the cytotoxicity call is “inactive”.

Take `COc1ccc(S(=O)(=O)Nc2ccc3c(c2)C(=O)N([C@@H](C)CO)C[C@@H](C)[C@@H](CN(C)C(=O)Nc2c(C)noc2C)OCCCC[C@H](C)O3)cc1`: the cytotoxicity call is “inactive”.

`O=C(O)CNC(=O)c1[nH]nc2ccccc12`: the cytotoxicity call was “inactive”.

For the molecule `CNC[C@H]1Oc2c(NS(=O)(=O)c3cn(C)cn3)cccc2C(=O)N([C@@H](C)CO)C[C@@H]1C`, the cytotoxicity call was “inactive”.

`Cc1nsc(C(=O)NC[C@H]2CCCO2)n1`: the cytotoxicity call was “inactive”.

Turning to `CNC[C@@H]1Oc2c(NS(=O)(=O)c3cn(C)cn3)cccc2C(=O)N([C@@H](C)CO)C[C@@H]1C`, the cytotoxicity call is “inactive”.

As to `C[C@H](CO)N1C[C@H](C)[C@H](CN(C)C(=O)C2CCCCC2)Oc2cc(C#CC(C)(C)O)ccc2S1(=O)=O`, the cytotoxicity call is “inactive”.

Take `CN(C)/C=C/C(=S)c1cccs1`: the cytotoxicity call is “inactive”.

Regarding `CC1(C)C=Cc2c(c3c(c4c(=O)c(-c5ccc(O)c(O)c5)coc24)OC(C)(C)CC3)O1`, the cytotoxicity call was “active”.

Regarding `C[C@@H]1CN([C@H](C)CO)C(=O)c2cccc(NS(=O)(=O)c3ccc(F)cc3)c2O[C@H]1CN(C)Cc1ccc(Oc2ccccc2)cc1`, the cytotoxicity call is “inactive”.
